# Results: PubChem BioAssay (NCI)
#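 These data come from cells grown in 96-well plates and exposed to compound for 48 hours at five concentrations. The concentration for 50% growth inhibition is given as GI50. TGI marks complete inhibition of growth.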
# Test system: NCI-H322M lung
# Test: growth of human tumour cells (NCI), 48 h
SMILES,GI50,TGI
O=c1oc2ccc(-c3ccc(F)cc3F)cc2c(=O)n1-c1cccc(C(F)(F)F)c1,1.34 µM,4.66 µM
CN(C)CCCNc1c2ccc(Cl)cc2nc2c1oc1ccc(Cl)cc12,3.14 µM,11.7 µM
C[C@@H](Nc1c(C#N)cnc2ccc(-c3cnc(Cl)c(NS(C)(=O)=O)c3)cc12)c1ccccc1,0.725 µM,8.74 µM
O=[N+]([O-])c1ccc(-c2nnc(SCc3ccc(O)c4ncccc34)n2-c2ccccc2)cc1,2.53 µM,> 100 µM
CCc1cc(OC(=O)N2CCC(N3CCCCC3)CC2)ccc1Nc1cc(-c2ccc(-n3cccn3)cc2)[nH]n1,2.25 µM,5.8 µM
